# Measured values taken from PubChem BioAssay AID686970 (National Center for Advancing Translational Sciences (NCATS), 2013).
# Hit rate of the full screen: of about 360,000 compounds, about 6,000 (1.7%) were called active. The inconclusive results got no clear call from the source; some entries with a clear call stand among them for comparison. Calls follow the shape of the dose curve; as a rule, active = well fitted cell-killing curve with a large enough effect; inconclusive = small, poorly fitted or top-dose-only effect, or effect the other way; inactive = flat fitted curve, though single readings scatter. No potency is given beside an inconclusive call; the fits are too rough.
# Assay: qHTS for induction of synthetic lethality in tumor cells producing 2HG: qHTS for the HT-1080-NT fibrosarcoma cell line;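 also: NT is the 2HG producing partner of a matched IDH1 knockdown line; nearly all actives have a fitted effect of over 55% in size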;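 as to activity, negative = less viability: 0% = DMSO-treated cells and -100% = media-only wells without cells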
# Conditions: HT-1080-NT fibrosarcoma viability, CellTiter-Glo ATP luminescence, 48 h; activity, negative = less viability: at 46.1 µM (top of the series) unless noted
# Method in brief: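 Luminescent CellTiter-Glo readout after 48 hours of compound exposure at 37 degrees C defined viability of HT-1080-NT cells. Activity was normalized to DMSO wells and cell-free media wells; concentration-response curves were fitted and assigned curve classes.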
# Potency is read from the fitted curve at half-maximal effect; tags tell the direction and shape of the fitted curve.
SMILES,Potency,"activity, negative = less viability"
NNC(=O)c1[nH]c2ccccc2c1-c1ccccc1,"inconclusive [cytotoxic, full curve, poor fit]",–
COc1ccccc1-c1sc2ccccc2c1-c1ccc(OCCN2CCOCC2)cc1,"inconclusive [cytotoxic, single point]",–
CC(=O)c1cc(-c2ccccc2)n(CC(=O)Nc2ccc(C)c(C)c2)c1C,"inconclusive [cytotoxic, single point]",–
O=C(N/N=C/c1cc([N+](=O)[O-])ccc1O)c1c[nH]c2ccccc12,"inconclusive [cytotoxic, partial curve]",–
CCC(C)NC(=O)CNC(=O)c1nn(-c2ccc(OC)cc2OC)c(=O)c2ccccc12 (stereo not given),–,inactive: 4.48%
S=C(NCCCc1ccccc1)NC1CCCCC1,"inconclusive [cytotoxic, single point]",–
Cc1ccc(OCC(=O)N/N=C/c2cn(Cc3ccccc3)c3ccccc23)cc1,"inconclusive [cytotoxic, single point]",–
CCCCCCCN1C(N(C)C)=NC[C@@H]1Cc1ccccc1,"inconclusive [cytotoxic, single point]",–
COc1ccc(/C=C2\SC(=S)NC2=O)cc1OS(=O)(=O)c1ccc(NC(C)=O)cc1,active: 20.6 µM,–
CCCOc1ccc(F)cc1-c1cc(C(=O)NCc2ccc(F)cc2)[nH]n1,"inconclusive [cytotoxic, single point]",–
COc1cccc2c1C(=O)c1c(O)c3c(c(O)c1C2=O)CC(O)(C(C)=NNC(=O)c1ccc(Cl)c(Cl)c1)CC3OC1CC(N)C(O)C(C)O1 (stereo not given),"inconclusive [cytotoxic, full curve]",–
Cc1ccc(C)c(S(=O)(=O)N2CCCCC2CCNC(=O)C(=O)NCc2ccccc2)c1 (stereo not given),"inconclusive [cytotoxic, single point]",–
Clc1ccc(/C=N/Nc2nnc(Cl)c3ccccc23)cc1,–,inactive: 10.1%
COc1ccc(NS(=O)(=O)c2ccc(N3CCCC3=O)cc2)cn1,active: 14.6 µM,–
COc1ccccc1/C=C(\NC(=O)c1cccc(C)c1)C(=O)Nc1ccccn1,"inconclusive [rising, single point]",–
COc1ccc(C(C(=O)NCc2ccccc2)n2c(-c3ccccn3)nc3ccccc32)cc1 (stereo not given),"inconclusive [cytotoxic, single point]",–
O=C(CC1CCCC1)NCCS(=O)(=O)N1CCN(c2ccccc2F)CC1,–,inactive: -10.7%
CCOC(=O)/C=C(\C)Sc1cc(O)c2ccccc2c1O,active: 23.1 µM,–
COC(=O)[C@@]12C[C@@H](CC(=O)N3CCC(c4ccccc4)CC3)C(=O)N(Cc3ccccc3)C1=CCC(C)(C)C2,"inconclusive [cytotoxic, single point]",–
CC(C)C[C@@H](CN1CCC[C@H]1CN1C(=O)C(=O)NC[C@@H]1Cc1ccc(O)cc1)N1C[C@H](Cc2ccc(O)cc2)N(CC2CCCCC2)C(=O)C1=O,"inconclusive [cytotoxic, single point]",–
C/C(=N\NC(=O)c1csc(C)c1C)c1ccc(Cl)s1,–,inactive: -0.777%
Cc1ccc2c(c1)C(=O)N1[C@H]3c4cc(Br)ccc4OC[C@@H]3[C@H](c3ccccc3)[C@]1(C)C(=O)N2,"inconclusive [cytotoxic, single point]",–
O=C(Nc1ccc(F)cc1)C(c1ccnc2ccccc12)N1CCN(c2cccc(C(F)(F)F)n2)CC1 (stereo not given),"inconclusive [cytotoxic, single point]",–
COc1ccccc1NS(=O)(=O)c1ccc(-c2cc(C)no2)s1,"inconclusive [cytotoxic, partial curve]",–

SMILES,Potency,"activity, negative = less viability"
CCOC(=O)C1=C(C)NC(C)=C(C(=O)OCC)C1C(=O)OCC(=O)N(CC)C1CCS(=O)(=O)C1 (stereo not given),–,inactive: 9.63%
O=C(C=Cc1ccco1)c1ccc([N+](=O)[O-])cc1,–,inactive: 6.26%
CCCCc1c(-c2ccccc2OC)ncn1CCc1cccc(F)c1,active: 20.6 µM,–
O=C(NC(NC1CCS(=O)(=O)C1)C(Cl)(Cl)Cl)c1cccc(Cl)c1 (stereo not given),–,inactive: -0.834%
O=C1Nc2cc(C(=O)NCCN3CCCCCC3)ccc2S/C1=C/c1ccccc1F,"inconclusive [cytotoxic, single point]",–
CC(C)CC1(C(=O)NCc2ccccn2)C=CCN1C(=O)c1ccccc1 (stereo not given),"inconclusive [rising, single point]",–
CC(C)c1onc(C(=O)Nc2sc3c(c2C#N)CCC3)c1[N+](=O)[O-],–,inactive: -0.879%
COCCN(CCOC)S(=O)(=O)c1ccc(C(=O)Nc2nc3c(s2)CCc2ccccc2-3)cc1,"inconclusive [cytotoxic, single point]",–
COc1ccc(CNC(=O)C(c2ccc(C)cc2)N(Cc2cccs2)C(=O)c2ccc3c(c2)OCCO3)cc1 (stereo not given),"inconclusive [cytotoxic, partial curve]",–
CCCCCOc1ccc(CSC(=N)N)cc1[N+](=O)[O-],active: 20.6 µM,–
Cc1ccc(Cn2c(NCCc3ccccc3)nc3c2c(=O)n(C)c(=O)n3C)cc1,–,inactive: -4.57%
O=C(Nc1cccnc1)C1CC(c2ccc(Cl)c(Cl)c2)=NO1 (stereo not given),"inconclusive [cytotoxic, single point]",–
CC[n+]1cc(C)ccc1/C=C/c1ccc(N(C)C)cc1,"inconclusive [cytotoxic, full curve]",–
COC(=O)c1cc(=O)nc2sc(-c3ccc(F)cc3)nn12,–,inactive: -5.16%
S=c1[nH]nc(-c2cccnc2)n1-c1ccccc1,"inconclusive [cytotoxic, single point]",–
Cc1cc(C)c(OCC(=O)Nc2ccc(S(=O)(=O)N3CCCC3)cc2)c(C)c1,–,inconclusive: -24.7% [cytotoxic]
OC(c1cccc(Cl)c1)c1nc(/C=C/c2ccc(C(F)(F)F)cc2)cs1 (stereo not given),"inconclusive [cytotoxic, single point]",–
O=C(Nc1cc(Sc2ccccn2)cc([N+](=O)[O-])c1)c1ccc(Cl)cc1,"inconclusive [cytotoxic, partial curve]",–
Cc1ccc(N=Cc2c(O)n(C)c(=O)n(C)c2=O)nc1,–,inconclusive: 8.7% [cytotoxic]
C=CCc1cccc(/C=N/NC(=O)CNc2ccccc2)c1O,"inconclusive [cytotoxic, partial curve]",–
C[C@H](NC(=O)c1[nH]cnc1C(=O)Nc1ccc(CNC(=O)OC(C)(C)C)cc1)C(=O)OCc1ccccc1,"inconclusive [cytotoxic, single point]",–
CCC1CCCCN1C(=S)NCc1ccccc1 (stereo not given),–,inactive: 3.26%
CC1(C)CC(=O)C=C(NCC(O)c2ccccc2)C1 (stereo not given),–,inactive: -4.29%
CC(O)(c1cccc(F)c1)c1nc(-c2cnc3ccccc3c2)cs1 (stereo not given),active: 14.6 µM,–

SMILES,Potency,"activity, negative = less viability"
CC(C)CN(C)Cc1c(C(=O)N2CCc3ccccc3C2)nc2ccc(Cl)cn12,–,inconclusive: -32.3% [cytotoxic]
CC(C)c1ccc(/C=C/C(=O)NC(=S)Nc2ccc(CN3CCOCC3)cc2)cc1,"inconclusive [cytotoxic, single point]",–
COc1ccc(Br)c(C(=O)OCC(=O)N2CCC(Cc3ccccc3)CC2)c1,–,inactive: -0.935%
Cc1cc(C)cc(N2C(=O)CSC2c2ccccn2)c1 (stereo not given),–,inactive: 4.22%
COC(=O)C1CCN(C(c2ccc(OC)c(OC)c2)c2sc3nc(C)nn3c2O)CC1 (stereo not given),"inconclusive [rising, single point]",–
Cc1ccc(S(=O)(=O)Nc2cccc(C(=O)NCCCn3ccnc3)c2)cc1F,–,inactive: -1.42%
CCCN1C(=O)c2ccccc2NC1c1ccc(Cl)c(Cl)c1 (stereo not given),–,inactive: -0.3%
CCC(C)NCCCCOc1cc(C)cc(C(C)C)c1 (stereo not given),"inconclusive [cytotoxic, partial curve]",–
CCN(CC)C(=O)c1[nH]cnc1C(=O)NCC(=O)OC(C)(C)C,–,inactive: 1.27%
Cn1cncc1C#Cc1ccc(N2C(c3ccsc3)=Cc3ccc(F)cc3C2c2c[nH]c3ccccc23)cc1 (stereo not given),"inconclusive [cytotoxic, single point]",–
CCCN1C(=O)/C(=C/c2cc(C)n(C)c2C)SC1=Nc1ccc(OC)cc1,"inconclusive [cytotoxic, single point]",–
CC(=O)Nc1ccc(SCC(=O)Nc2cc(C)on2)cc1,–,inactive: 9.3%
O=c1c2ccccc2nc(/C=C/c2ccc3c(c2)OCO3)n1CCCO,"inconclusive [cytotoxic, partial curve]",–
COc1ccc(C=C2Cc3ccccc3C2=O)cc1,–,inactive: -1.21%
CCCOc1ccc(F)cc1-c1cc(C(=O)Nc2cc(OC)ccc2OC)[nH]n1,"inconclusive [cytotoxic, full curve, poor fit]",–
O=C1[C@H]2CCCC[C@H]2C(=O)N1CCCCN1CCN(c2nsc3ccccc23)CC1,active: 23.1 µM,–
C#CCOc1ccc(C2C3=C(COC3=O)Nc3cc4c(cc32)OCO4)cc1OC (stereo not given),active: 0.0461 µM,–
COc1ccc(C)cc1NC(=O)c1ccc([N+](=O)[O-])cc1[N+](=O)[O-],–,inactive: -4.86%
O=C(Cn1c(COc2ccccc2)nc2ccccc21)Nc1cccc(Cl)c1,"inconclusive [cytotoxic, single point]",–
O=C1NC[C@H](Cc2ccccc2)N(CC2CCN(CC3CCCC3)CC2)C1=O,–,inactive: 12.2%
CC1=C(C(=O)OC2CCCCCCC2)C(c2cc3c(cc2Br)OCO3)CC(=O)N1 (stereo not given),"inconclusive [cytotoxic, single point]",–
C=CC[C@@H](CC(=O)N(CCO)Cc1ccccc1)C(=O)N[C@H](C)COC(=O)[C@@H](CC=C)Cc1ccc(F)cc1,–,inactive: -0.0899%
